# Results as given in the supplement of paper PMC10126150.
# Values marked as one replicate rest on one cluster of the flow cell; about a third of the high ones do not repeat.
# System: ATP
# Test: switch fluorescence ratio, 500 uM ATP over buffer (Cy3 cluster intensity, sum of 5 cycles each) (fold (ratio)); higher = stronger signal-on switching upon ATP binding; sequences stand for … in TCGTCGGCAGCGTCAGATGTGTATAAGAGACAGTTTTTTTTTTTTTTTTTTTTTTTTT…TC
# Conditions: aptamer strand: ATP DNA aptamer (quencher-CACCTGGGGGAGTATTGCGGAGGAAGG + anchor), 100 nM annealed; ATP concentration: 500 uM; one replicate
# In short: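 Imaging in selection buffer was followed by imaging after 15 min with 500 uM ATP at 22 °C, for Cy3-labelled switching-strand clusters annealed to 100 nM quencher-labelled ATP aptamer on a modified Illumina MiSeq flow-cell. Five of these buffer/ATP cycles ran, separated by NaOH stripping and re-annealing. The fluorescence ratio per cluster is summed target-cycle over summed buffer-cycle Cy3 intensity, averaged per switch-domain sequence; clusters outside 100-1000 RFU were removed.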
# 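Further: ATP exposure 15 min at 22 °C before imaging.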
row,Sequence,switch fluorescence ratio
1,GATGCTGCTT,1.03
2,GATGCTGGGA,0.965
3,GATGCTGGT,1
4,GATGGAATTG,0.986
5,GATGGATAGA,1.03
6,GATGGCACAG,1
7,GATGGCCGGC,0.917
8,GATGGCCGTT,0.995
9,GATGGCGAAG,1.01
10,GATGGCGTTG,0.99
11,GATGGGATAT,0.981
12,GATGGGTGGA,0.947
13,GATGGGTGGT,1.03
14,GATGGGTGTA,1.03
15,GATGGTATTG,1.02
16,GATGGTTTAA,0.988
17,GATGTCAAAG,1.03
18,GATGTCAT,1.01
19,GATGTCTGAC,1.06
20,GATGTGGTT,0.971
21,GATGTGTATG,1
22,GATGTGTGGT,0.947
23,GATGTGTTGC,0.989
24,GATGTTGTCA,0.976
25,GATTAAATAA,0.996

row,Sequence,switch fluorescence ratio
1,GATTAACGAT,1.05
2,GATTAACTA,0.974
3,GATTAAGGGG,0.979
4,GATTAATCCA,1.01
5,GATTACCTGG,1.02
6,GATTACGAAG,0.966
7,GATTAGTAGG,0.953
8,GATTATCCC,1.06
9,GATTATGCTA,0.99
10,GATTATGGTG,0.992
11,GATTATTGTT,1.05
12,GATTATTTCC,1.02
13,GATTCAGCCG,0.995
14,GATTCAGGTG,2.82
15,GATTCAGGTT,0.999
16,GATTCATTGA,1.01
17,GATTCGAGTA,1
18,GATTCGGAAA,1.02
19,GATTCTCGGA,1.01
20,GATTCTGCAG,0.991
21,GATTCTGTGG,1
22,GATTGATGCC,1.04
23,GATTGCCATA,0.958
24,GATTGCGAAG,0.999
25,GATTGCGATG,0.992

row,Sequence,switch fluorescence ratio
1,GATTGGCGGT,1.02
2,GATTGGGATT,0.95
3,GATTGGGCGG,0.954
4,GATTGTGCGA,1.02
5,GATTTACAT,1.02
6,GATTTATCCA,1.02
7,GATTTCAAGT,0.957
8,GATTTCAATA,0.987
9,GATTTCACTT,0.978
10,GATTTCGGAA,0.923
11,GATTTGAACC,1.02
12,GATTTGATCC,1.04
13,GATTTGATCG,0.964
14,GATTTGTAGT,0.956
15,GATTTTTACA,0.982
16,GCAAAAATCG,1.01
17,GCAAAATGA,0.971
18,GCAAAGCTTT,1.01
19,GCAAATGCGC,1.06
20,GCAAATGGC,1.03
21,GCAACATCTG,1.04
22,GCAACCTCCC,3.6
23,GCAACTGCGG,0.981
24,GCAAGCATCC,1.53
25,GCAAGCCCGG,1.06

row,Sequence,switch fluorescence ratio
1,GCAAGCGTGC,1.01
2,GCAAGGACTA,1.1
3,GCAAGGGTGC,1.09
4,GCAAGGTATC,1.05
5,GCAAGTGGAC,1.08
6,GCAATAATCC,2.6
7,GCAATATAGG,1.24
8,GCAATCTATG,1.05
9,GCAATGAATT,1.06
10,GCAATGCAGA,1.08
11,GCAATGCTTT,2.02
12,GCAATTCCTA,1.1
13,GCAATTTCTT,1.02
14,GCACAAGGGA,1.02
15,GCACACAGGC,1.06
16,GCACAGATGG,1.06
17,GCACAGCGGA,1.02
18,GCACATATTC,1.16
19,GCACATGTGG,0.965
20,GCACCACTGA,1.07
21,GCACCCCGAC,1.32
22,GCACCCTCTG,1.03
23,GCACCGGGCC,1.05
24,GCACGAATCA,0.999
25,GCACGAATGA,1.1

row,Sequence,switch fluorescence ratio
1,GCACGCGCCG,1.1
2,GCACGGCCG,0.975
3,GCACGGGCTC,0.972
4,GCACGTAAA,1.22
5,GCACTCAGAG,1.02
6,GCACTGTACG,1.69
7,GCACTGTGTT,1.04
8,GCACTGTTCG,0.959
9,GCAGACCCAG,0.984
10,GCAGAGGAGA,1.05
11,GCAGATAGTG,1.01
12,GCAGATCGCC,1.03
13,GCAGCATGGG,1.24
14,GCAGCCAAAT,1.01
15,GCAGCCGGGG,1.01
16,GCAGCCTACG,1.11
17,GCAGCGACGG,1.08
18,GCAGCGCCCA,1.02
19,GCAGCGCTGC,1.04
20,GCAGCTCCGC,1.19
21,GCAGGAGTCG,0.978
22,GCAGGAGTTT,0.996
23,GCAGGATCCT,1.04
24,GCAGGCAAGA,1.04
25,GCAGGCTCGC,1.06

row,Sequence,switch fluorescence ratio
1,GCAGGTTAAT,0.968
2,GCAGTAAAAG,1.02
3,GCAGTAAGGG,1.05
4,GCAGTCCTGA,1.02
5,GCAGTCGTTT,1.06
6,GCAGTGCCCA,1.01
7,GCAGTGCGGG,1.03
8,GCAGTTAAAT,1.01
9,GCAGTTGGTT,0.973
10,GCAGTTTGAA,0.993
11,GCATAAACAT,1.02
12,GCATAAATCG,0.999
13,GCATAACGAG,1.46
14,GCATAACTCT,1.35
15,GCATACAACT,1.03
16,GCATACCAAC,1.13
17,GCATAGGATC,0.981
18,GCATATAGCA,0.965
19,GCATATCCTC,1.21
20,GCATATCGCG,0.981
21,GCATCAACAT,1.06
22,GCATCAATAG,1.26
23,GCATCCGGGG,0.969
24,GCATCGAAGG,1.02
25,GCATCGAGGT,1.02

row,Sequence,switch fluorescence ratio
1,GCATCGGAAT,1.05
2,GCATCTTTCC,1.25
3,GCATGAAAAA,1.01
4,GCATGAAGCT,1.02
5,GCATGGAAGT,0.999
6,GCATGTACAC,1.15
7,GCATGTAGGG,0.989
8,GCATGTGTAC,1.12
9,GCATGTGTTG,0.999
10,GCATGTTACC,1.1
11,GCATGTTTAG,0.953
12,GCATTACAGC,1.05
13,GCATTGATGC,1.03
14,GCCAAACTTC,1.02
15,GCCAACTAGA,1
16,GCCAATATAG,1.1
17,GCCAATTGTA,0.965
18,GCCACAAAGA,1.01
19,GCCACAACAT,0.984
20,GCCACACGTC,1
21,GCCACCAGC,1.04
22,GCCACCTCA,1.02
23,GCCACTTGCC,0.932
24,GCCAGACAGC,1.01
25,GCCAGACGGC,1.01

row,Sequence,switch fluorescence ratio
1,GCCAGCAGTG,1.08
2,GCCAGGAATG,1.02
3,GCCAGTTAAT,1.01
4,GCCATAGCTC,1.05
5,GCCATAGGGC,1.03
6,GCCATGAAAA,0.951
7,GCCATGCCCG,1.04
8,GCCATGCCGG,1.02
9,GCCCACTCGG,1.05
10,GCCCAGAAGA,1.06
11,GCCCAGGGAC,2.27
12,GCCCATGCCT,1
13,GCCCCACGGC,0.985
14,GCCCCGGGGC,1.04
15,GCCCCTATGT,1
16,GCCCGATTAA,1.03
17,GCCCGCCTTC,1.01
18,GCCCGTACAT,0.958
19,GCCCTAGGTT,1.18
20,GCCCTTGTA,0.984
21,GCCCTTGTAA,0.978
22,GCCCTTGTGC,0.884
23,GCCCTTTCTC,1.02
24,GCCGAACAAA,0.985
25,GCCGATAGTC,1.05
